# Reference: the supplement of paper PMC3334620
# Over roughly 33,000 sequences, “E-score (-0.5 to 0.5)” has its median near -0.01; the highest 2% begin near 0.26. Some of the results follow.
# Target: Ste12 (UniProt P13574)
# Assay: PBM E-score (8-mer binding enrichment) (E-score (-0.5 to 0.5)); higher = stronger / more preferred TF binding; most listed sequences are background and not binding sites
# Settings: protein concentration: 200 nM; construct: GST-DNA-binding domain
# Method in brief: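 Bound GST-tagged yeast transcription factors, applied at about 100-200 nM to double-stranded universal all-10-mer Agilent arrays, were detected with fluorescent anti-GST. Scans were normalised with masliner. A modified Wilcoxon-Mann-Whitney statistic, the E-score, was assigned to each ungapped eight-base word pooled with its reverse complement by the Universal PBM Analysis Suite.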
row,Sequence,PBM E-score
1,AACTGACG,-0.0482
2,CCGTTCGC,-0.216
3,CCTCTGGA,-0.0276
4,ACATAAGG,0.149
5,GCCTGTCA,-0.18
6,ATCGGAAT,0.126
7,AGGAACCG,-0.00564
8,CACGCGAC,-0.183
9,CGCGCATA,-0.00438
10,AGGACGAT,-0.0289
11,GGACGGTA,-0.0987
12,CCCTTGTC,-0.0531
13,GGAGATAA,0.0244
14,ATAGTGCC,-0.0186
15,CCGCACGC,-0.189
16,ACCTTACA,0.0584
17,AAGAGATT,0.161
18,TAAGGCTA,0.0255
19,AAGCAATG,0.0724
20,GCGACGAA,0.00626
21,ACGTAAAA,0.161
22,CCTTTAAA,0.0788
23,CCGAATCC,0.119
24,CCGATGAG,-0.215
25,CCATTGCC,0.067

row,Sequence,PBM E-score
1,GCTCAAGA,-0.195
2,CTGTATTC,0.0934
3,GGTGTGTA,-0.0827
4,AGTCTCCA,-0.292
5,CTCCGCGA,-0.0599
6,CGCTCGCC,0.0662
7,ATCTCACC,-0.00071
8,ACCTTGAC,-0.0554
9,ACATCCTC,0.102
10,CTCTTGCA,-0.0675
11,TAATGGCA,0.203
12,TTGGCAAA,0.136
13,ACCATGAT,-0.123
14,CTAGTCAA,-0.0166
15,CGGCCAAG,-0.0734
16,GGGTAGAC,-0.188
17,TAACCTTA,0.0628
18,AATATACA,0.144
19,GGTGGTGA,0.0764
20,CGTGTTCA,0.0516
21,ACGAACTC,0.0682
22,ATATGTCG,0.0565
23,ATTTAAAC,0.207
24,AGTCACTG,-0.0698
25,CTCCTTAA,-0.141

row,Sequence,PBM E-score
1,GGCTGGAC,-0.182
2,CAGGACGG,-0.112
3,ATCTCAAT,0.0795
4,ACAGTGCT,0.0295
5,ACGCTAAT,-0.0127
6,AGTCTCGG,-0.188
7,ATGGCATA,0.103
8,AGCCCATG,-0.0269
9,CTTATATC,0.0996
10,AGGATAGA,0.0956
11,CCTAATCA,0.209
12,AGATCCCC,-0.016
13,CTCTTAAA,0.187
14,CCTTTGGA,-0.103
15,ATTACTTC,-0.0702
16,CACTCACC,-0.0514
17,AAGGCTCT,-0.138
18,AGTCCCCC,-0.266
19,AGAAGAAT,-0.162
20,ATGTCCCC,0.0783
21,GAGGTGCA,-0.0509
22,AGAGAAAT,0.0896
23,AAACGTGG,0.0452
24,CGTTCCTA,0.00679
25,AAATGAAT,0.108

row,Sequence,PBM E-score
1,AGATAATA,0.137
2,AAAGCGCC,-0.0182
3,ATACTGCA,0.113
4,CGCCACTC,0.123
5,CAGATCAG,0.0568
6,ACTGGATC,0.0684
7,CTATCCAC,-0.0583
8,AGCCCTAA,0.0362
9,ACACACGA,0.0703
10,CGACTATA,0.101
11,ACTTTGGC,-0.154
12,ACTATCGA,-0.0428
13,ATAAAACG,0.37
14,CCGCAGCG,-0.033
15,GAACCGTA,-0.202
16,GCGTAAAC,0.0347
17,CTCGCTGA,0.0712
18,CAAACGGG,0.0663
19,AGGGGTGA,0.0141
20,CGAGCTCC,-0.0186
21,GTTCCTAA,-0.00472
22,CCAACTCA,0.0106
23,ACATTGAC,0.0479
24,GCATGAGA,-0.0163
25,CCTCACAC,-0.033

row,Sequence,PBM E-score
1,ACTACTGC,-0.0446
2,CAAAGGTA,-0.022
3,TGTTCCAA,0.139
4,GGCACAAC,-0.00342
5,AGAACCGA,-0.0635
6,GCGACCAC,-0.0209
7,GACTAGTC,-0.203
8,AGTATACC,-0.00913
9,CAGAACCC,-0.0204
10,CTGCCCTC,-0.211
11,GTACCCAA,0.036
12,CACATCTA,0.0333
13,AATGTCCC,0.159
14,AGACCGGC,-0.191
15,AAGCTGGC,-0.151
16,CAGGGAAA,0.0887
17,AATCCGAA,0.0364
18,GCATTTCA,0.0979
19,GATATGGA,0.235
20,AGGTTCGG,-0.116
21,AGGCGACA,-0.116
22,ATACATTA,0.164
23,ATCCGTGG,-0.107
24,ACTGGCTC,-0.277
25,AATCAACG,-0.0774

row,Sequence,PBM E-score
1,ACGTTCGC,-0.113
2,AGAACGGC,-0.037
3,CCATGAAC,-0.0453
4,TATGGACA,-0.00254
5,ACTCAATC,0.102
6,TAGTTAGA,0.0557
7,AGTTGCAC,-0.0926
8,ATGTTAGC,-0.184
9,AGTCGTGC,-0.133
10,AGGTCCCC,-0.176
11,CAGGTGCG,0.077
12,CTATCCGA,0.107
13,CAGACTGG,-0.158
14,CCACATCC,-0.0536
15,TCCTATAA,0.0336
16,CAATAATG,0.0505
17,TGAAGAAA,0.109
18,GAAGACAA,-0.0264
19,GCCTAGAA,0.00109
20,GATTCAGC,-0.0879
21,CCAAATCC,-0.177
22,ACATTTCC,0.0947
23,GCGAGGGA,0.0452
24,ACATGTTG,0.148
25,CACTTCGA,0.0384

row,Sequence,PBM E-score
1,CTACAGGC,-0.165
2,ATAGCGTC,0.0538
3,GCCACGCC,-0.186
4,GTCGAAAC,0.128
5,ATGAACGC,0.0625
6,GGTTGTAC,-0.219
7,CAAAAATA,0.346
8,GAATACTA,0.236
9,ATAGGTTA,0.0715
10,GACGTTCC,-0.231
11,AGTAGACT,-0.217
12,AACACCTT,0.0484
13,TAGCCACA,-0.105
14,TCTTCCAA,0.0347
15,GACGAGGC,-0.122
16,CCTAAATC,-0.0187
17,CATAAAAA,0.175
18,GGATTCAA,0.0399
19,CAGCATAA,0.139
20,AAACATCG,0.233
21,AATTCTAA,0.242
22,CTTGTTGA,0.00531
23,ACATTGCT,-0.0537
24,TGGGGAAA,0.098
25,CGGTCCTA,-0.0839

row,Sequence,PBM E-score
1,TACTAACA,0.193
2,CGGCGGCC,-0.0459
3,CATTGTGC,-0.152
4,CAGGGCAG,-0.0739
5,AGTATTCG,0.0217
6,CAAAGTTC,-0.0947
7,CTTATTAA,0.213
8,AATCGGCT,0.189
9,GCCCATCC,-0.165
10,ACATTCTC,0.0558
11,ACCCAGAC,-0.0262
12,ACACCGCG,-0.0298
13,CCTGTGAG,-0.119
14,CCTTATCA,0.0945
15,GAACCGGC,-0.0332
16,GGTACACA,-0.122
17,CACAGATG,-0.205
18,CTAGGTTC,-0.0289
19,CGTGCGGA,-0.0676
20,AATCCGTG,-0.0695
21,CAGGAGAA,0.0114
22,GAAAAAGA,0.241
23,GCAAAAAA,0.258
24,ATTCCGGA,0.11
25,GTTTTCTA,0.0606

row,Sequence,PBM E-score
1,ATAATCCG,-0.0219
2,GCCCTGTA,-0.117
3,AGTACTTC,0.0465
4,ATCTGTGG,-0.106
5,GCAGCAGA,-0.0506
6,GCGTTACA,0.139
7,ATTTCATC,0.202
8,GCGCGGGA,0.0251
9,GCGCCACC,-0.0104
10,AGAACCAG,-0.013
11,GGTTCAAA,0.195
12,ATTAAGTG,0.127
13,CGCACCAG,0.175
14,CGTATCCC,-0.0743
15,CAGGAATC,0.142
16,TATAATGA,0.225
17,AGGCGAAG,-0.178
18,CCGCCCAA,-0.0838
19,ATTTGCAG,0.108
